Test results from PubChem BioAssay AID686978 (National Center for Advancing Translational Sciences (NCATS), 2013).
The campaign covered roughly 420,000 compounds. About 64,000 (15%) were called active. This list was built around the results that the source calls inconclusive (neither active nor inactive); the mix of calls is not that of the screen. The call rests on the fitted dose curve; in most records, active means well fitted inhibition curve with a large enough effect; inconclusive means small, poorly fitted or top-dose-only effect; inactive means flat fitted curve, though single readings scatter. Potencies of inconclusive entries are left out as doubtful fits.

Experiment: qHTS for Inhibitors of human tyrosyl-DNA phosphodiesterase 1 (TDP1): qHTS in cells in absence of CPT; further: nearly all actives have a fitted effect of over 55% in size
Details: DT40 Tdp1-/- hTDP1 cells, no CPT, ATP luminescence, 48 h; activity change, negative = growth inhibition: at 46.2 µM (top of the series)
Outline: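 Readout: luminescence from CellTiter-Glo after 30 min in the dark at RT. Cells: DT40 Tdp1-/- with stable hTDP1, 400/well. Exposure: compounds alone, ≥48 hr, 37 °C.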
On the % scale 0 is the no-effect control and ±100 the full control effect; potency means the concentration at half of the fitted maximal effect; tags describe the fitted curve by direction and shape.

| SMILES | Potency | activity change, negative = growth inhibition |
| --- | --- | --- |
| CC1CCN(c2oc(-c3cccs3)nc2S(=O)(=O)c2ccccc2)CC1 | active: 20.6 µM | – |
| CN1/C(=C\C(=O)C(F)F)C(C)(C)c2ccccc21 | – | inactive: -28.3% |
| CCc1nc(NCC2CC2)c2nnn(Cc3ccccc3)c2n1 | inconclusive [inhibitor, partial curve, poor fit] | – |
| CCc1c(C)sc2c1CCN(Cc1ccccc1C#N)C2c1ccccc1 (stereo unspecified) | inconclusive [inhibitor, single point] | – |
| Clc1ccc(C2[C@H]3CN(Cc4cccnc4)[C@H](c4ccccc4)C34CC2(c2ccccc2)C4)cn1 (stereo partly specified) | inconclusive [inhibitor, single point] | – |
| O=C1C(c2ccccc2)NC(=S)N1C1CCCCC1 (stereo unspecified) | inconclusive [inhibitor, single point] | – |
| CC(=O)Nc1ccc(S(=O)(=O)NCCC(=O)NNC(=O)c2ccncc2)cc1 | – | inactive: -10.3% |
| CC(C)=CC(=O)OCC(=O)Nc1cc(C)cc(C)c1 | – | inactive: -22.1% |
| NS(=O)(=O)c1ccc(N=Nc2c(O)[nH]c3ccc(Br)cc23)cc1 | inconclusive [inhibitor, partial curve] | – |
| COC(=O)c1ccc(C2CC(=O)Nc3cc(OC)c(OC)c(OC)c32)cc1 (stereo unspecified) | inconclusive [inhibitor, partial curve, poor fit] | – |
| CSCCCN1CCCC(CO)(Cc2ccccc2F)C1 (stereo unspecified) | – | inactive: -25.3% |
| COc1ccc(S(=O)(=O)N2CCSCC2)cc1 | – | inactive: 10.9% |
| NS(=O)(=O)c1ccc(CCNCC#Cc2ccccc2)cc1 | – | inactive: -5.7% |
| COc1ccc(CCNC(=O)c2cnc3sc(N4CCOCC4)nn3c2=O)cc1 | inconclusive [inhibitor, partial curve] | – |
| CC(=O)Nc1ccc(/C=C/c2ccc3cccc([N+](=O)[O-])c3n2)cc1 | inconclusive [inhibitor, single point] | – |
| COc1ccc(-n2ccn3c(CCC(=O)N4CCN(c5cccc(C)c5C)CC4)nnc3c2=O)cc1 | – | inactive: 1.76% |
| CC(=O)c1ccc(NC(=O)c2cnn3c2NC(=C2CC2)C=C3C(F)F)cc1 | inconclusive [inhibitor, single point] | – |
| Cc1nc2ccccc2cc1C(=O)NCc1ccccc1 | active: 13 µM | – |
| CCCCNC(=O)C1(C)CCCCCN1Cc1cc2ccccc2o1 (stereo unspecified) | inconclusive [inhibitor, single point] | – |
| CC(=O)Nc1ccc(NC(=O)c2ccc(-c3ccnn3C)c3ccoc23)cc1 | inconclusive [inhibitor, single point] | – |
| COC(=O)N1C(=O)[C@](c2ccccc2)(C(C)C)N1C(=O)OC | inconclusive [inhibitor, single point] | – |
| CN1CCN(c2ccc(NC(=O)c3ccc(-c4ccc(Br)cc4)o3)cc2)CC1 | active: 29.1 µM | – |
| Cc1cc([N+](=O)[O-])ccc1NC(=O)C[n+]1ccc(N(C)C)cc1 | – | inconclusive: -35.8% [inhibitor] |
| Cc1ccc(-n2ncc3c2CC(C)(C)CC3NC(=O)CCc2cnn(C)c2)cc1 (stereo unspecified) | inconclusive [inhibitor, partial curve] | – |

| SMILES | Potency | activity change, negative = growth inhibition |
| --- | --- | --- |
| Cc1ccc(-c2nc3c(c(=O)c4ccccc4n3C)c(=O)n2Cc2ccco2)cc1 | inconclusive [inhibitor, partial curve] | – |
| Cc1nn(C)c2c1c(-c1ccccc1)cc(=O)n2Cc1ccc(F)cc1 | inconclusive [inhibitor, single point] | – |
| CC1(C)Cc2c(sc3nc(C4CC4)n(N)c(=O)c23)CO1 | inconclusive [inhibitor, single point] | – |
| OCC[C@H]1C[C@H](O)[C@@H](O)[C@]2(CCc3ccccc3CO2)O1 | – | inactive: -1.01% |
| O=C(CSc1ccc(Cl)cc1)Nc1cccc(-c2nnc(-c3ccco3)o2)c1 | inconclusive [inhibitor, full curve] | – |
| COC(=O)c1ccccc1NC(=O)NCCc1ccccc1OC | inconclusive [inhibitor, partial curve] | – |
| Cc1cc(C)n2nc(SCC(=O)N/N=C/c3ccccc3F)nc2n1 | inconclusive [inhibitor, single point] | – |
| Cc1ccccc1OCC(=O)Nc1ccc2c(c1)OCO2 | inconclusive [inhibitor, single point] | – |
| CCCCCC(=O)Nc1cccc(S(=O)(=O)NC2=NCCC2)c1 | – | inactive: -1.26% |
| COCCCN1C(=O)C(CC(=O)NCc2cccc3ccccc23)CC(C(=O)N(C)C)=C1C (stereo unspecified) | – | inactive: -23.9% |
| CC(=O)Nc1cccc(C(=O)OC(C(=O)c2ccc(C)cc2)c2ccccc2)c1 (stereo unspecified) | inconclusive [inhibitor, partial curve] | – |
| Cn1c(-c2ccncc2)nc2cc(C(=O)N[C@H]3CCCCNC3=O)cc(NC(=O)C3CCC3)c21 | inconclusive [inhibitor, partial curve, poor fit] | – |
| CCN1CCN(c2nc(-c3ccccc3Cl)nc3ccccc23)CC1 | inconclusive [inhibitor, full curve, poor fit] | – |
| Oc1ccccc1Cc1c(O)ccc2ccccc12 | – | inactive: -28.5% |
| Fc1cccc(Cc2c(-c3ccc(Cl)cc3)nc3ccc(Br)cn23)c1 | active: 16.4 µM | – |
| COc1ccc(-n2cc(-c3ccc4c(c3)OCO4)n(CC(=O)Nc3cc(Cl)ccc3C)c2=O)cc1 | inconclusive [inhibitor, single point] | – |
| COC(=O)CC(NC(=S)NC(=O)c1ccccc1)c1ccc(Br)cc1 (stereo unspecified) | – | inactive: -21.9% |
| O=C(Cc1ccc(F)cc1)N1CCN(c2ccc([N+](=O)[O-])cc2)CC1 | inconclusive [inhibitor, single point] | – |
| COc1cccc(Cn2c(Cn3c(-c4cnccn4)nc4ccccc43)nc3ccccc32)c1 | inconclusive [inhibitor, single point] | – |
| Cc1ccc(NC(=O)CCC(=O)N2Cc3ccccc3Oc3ncccc32)cc1Cl | inconclusive [inhibitor, partial curve] | – |
| CCOC(=O)c1cnc2ccc(OC)cc2c1Nc1ccc(OCc2ccccc2Cl)cc1 | active: 7.31 µM | – |
| CCCc1cc(=O)[nH]c(SCC)n1 | – | inactive: -3.75% |
| Cc1cc2nc(C(C)(C)C)c(Cc3cccc(F)c3)n2c(C)c1Br | inconclusive [inhibitor, single point] | – |
| CN(CC(=O)Nc1ccc(Cl)c(C(F)(F)F)c1)C(=O)c1cnccn1 | inconclusive [inhibitor, single point] | – |

| SMILES | Potency | activity change, negative = growth inhibition |
| --- | --- | --- |
| COCC(C)n1c(SC(C)C(=O)NC2CCCCC2C)nc2ccccc2c1=O (stereo unspecified) | inconclusive [inhibitor, single point] | – |
| COc1ccc(OC)c(N(C)S(=O)(=O)c2ccc3c(c2)N(C(C)=O)CCO3)c1 | – | inactive: -4.71% |
| Cc1nn(Cc2cccc(Oc3ccccc3)c2)c(C)c1NC(=O)NC12CC3CC(CC(C3)C1)C2 | inconclusive [inhibitor, single point] | – |
| COc1ccc([C@H]2CC(=O)C=C(c3cc(F)ccc3F)C2)cc1OC | – | inactive: -51.8% |
| COc1ccc(C2=NS(=O)(=O)N(C)C(C(=O)NC(C)c3ccccc3)=C2)cc1 (stereo unspecified) | inconclusive [inhibitor, single point] | – |
| CNC(=O)c1[nH]cnc1C(=O)Nc1ccccn1 | – | inactive: 3.08% |
| CCC(C)(C)n1nnnc1CN(Cc1cccs1)Cc1cc2cc(OC)ccc2[nH]c1=O | inconclusive [inhibitor, single point] | – |
| COc1ccccc1CNS(=O)(=O)c1c(C)cc(C)cc1C | inconclusive [inhibitor, single point] | – |
| COc1ccc(-c2nc3sc(CCNC(=O)Cc4ccccc4)c(C)n3n2)cc1 | active: 20.6 µM | – |
| O=C(CSc1nc2ccccc2s1)Nc1cc(S(=O)(=O)N2CCOCC2)ccc1Cl | inconclusive [inhibitor, single point] | – |
| CCCCCCCCNCCS(=O)(=O)NCc1ccc(OC)cc1 | inconclusive [inhibitor, single point] | – |
| O=C1N/C(=N\N=C\c2cccs2)SC1Cc1ccc(Cl)c(Cl)c1 (stereo unspecified) | inconclusive [inhibitor, single point] | – |
| COc1ccc(N=c2oc3c(OC)cccc3cc2C(=O)NCc2ccco2)c(OC)c1 | active: 13 µM | – |
| CCN(CC1CCCO1)C(=O)C1CCN(C2CCN(Cc3ccccc3C)CC2)CC1 (stereo unspecified) | inconclusive [inhibitor, single point] | – |
| O=C(c1ccco1)N1CCN(c2nc(C3CC3)nc3sc4c(c23)CCCC4)CC1 | inconclusive [inhibitor, single point] | – |
| CCC(C)N1C(=O)N(c2cccc(Cl)c2)C(C)(O)CC1(C)C (stereo unspecified) | – | inactive: -29.1% |
| CCN(C(=O)CSc1nc2ccccc2n1CC(=O)N(C)C1CCCCC1)c1ccccc1 | inconclusive [inhibitor, partial curve, poor fit] | – |
| CCOC(=O)c1cc(-c2ccccc2)n(CCC(=O)NCCc2ccccc2)c1C | active: 16.4 µM | – |
| COc1ccc(SCc2noc(C(=O)NC(C)C)c2C(=O)O)cc1 | – | inactive: 4.59% |
| Cc1ccc(C(=O)N/C(=C/C=C\c2ccccc2)C(=O)NCc2ccco2)cc1 | inconclusive [inhibitor, single point] | – |
| CC(=O)Nc1ccc(NC(=O)COc2ccc(-c3ccccc3)cc2)cc1 | – | inactive: -0.864% |
| CN1CCC(OC2c3ccccc3CCc3ccccc32)CC1 | inconclusive [inhibitor, single point] | – |
| Cc1ccc2oc(C(=O)Nc3ccc(S(=O)(=O)N4CCCCC4C)cc3)cc(=O)c2c1 (stereo unspecified) | inconclusive [inhibitor, partial curve] | – |
